PMC12215836
No constants are given. Whether binding was seen depends on the method and setting. In cells and extracts the contact can be indirect. Some binding calls cover weakened binding; strength is not graded here.

Amino acid sequences for entries named in this document (tags omitted).
UniProt P27540: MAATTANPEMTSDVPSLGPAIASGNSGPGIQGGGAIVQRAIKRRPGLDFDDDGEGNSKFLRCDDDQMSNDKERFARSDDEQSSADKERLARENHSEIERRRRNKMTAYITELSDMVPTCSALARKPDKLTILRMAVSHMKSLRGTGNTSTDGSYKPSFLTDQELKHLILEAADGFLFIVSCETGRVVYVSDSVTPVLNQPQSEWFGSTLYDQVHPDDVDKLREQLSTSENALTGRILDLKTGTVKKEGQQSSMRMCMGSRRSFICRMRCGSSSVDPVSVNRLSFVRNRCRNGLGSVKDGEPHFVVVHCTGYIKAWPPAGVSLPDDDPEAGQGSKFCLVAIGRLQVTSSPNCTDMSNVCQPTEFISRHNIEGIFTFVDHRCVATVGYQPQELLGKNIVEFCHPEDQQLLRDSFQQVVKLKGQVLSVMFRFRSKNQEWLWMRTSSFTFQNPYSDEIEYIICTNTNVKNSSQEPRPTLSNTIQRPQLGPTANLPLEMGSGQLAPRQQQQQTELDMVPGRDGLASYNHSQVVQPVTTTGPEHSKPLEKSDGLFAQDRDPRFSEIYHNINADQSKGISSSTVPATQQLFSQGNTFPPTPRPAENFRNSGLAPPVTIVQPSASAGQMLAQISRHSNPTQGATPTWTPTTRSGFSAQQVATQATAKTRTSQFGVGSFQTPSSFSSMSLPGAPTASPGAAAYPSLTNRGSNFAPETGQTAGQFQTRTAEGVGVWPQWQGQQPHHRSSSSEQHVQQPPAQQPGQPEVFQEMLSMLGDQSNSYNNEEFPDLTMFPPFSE
UniProt O00327: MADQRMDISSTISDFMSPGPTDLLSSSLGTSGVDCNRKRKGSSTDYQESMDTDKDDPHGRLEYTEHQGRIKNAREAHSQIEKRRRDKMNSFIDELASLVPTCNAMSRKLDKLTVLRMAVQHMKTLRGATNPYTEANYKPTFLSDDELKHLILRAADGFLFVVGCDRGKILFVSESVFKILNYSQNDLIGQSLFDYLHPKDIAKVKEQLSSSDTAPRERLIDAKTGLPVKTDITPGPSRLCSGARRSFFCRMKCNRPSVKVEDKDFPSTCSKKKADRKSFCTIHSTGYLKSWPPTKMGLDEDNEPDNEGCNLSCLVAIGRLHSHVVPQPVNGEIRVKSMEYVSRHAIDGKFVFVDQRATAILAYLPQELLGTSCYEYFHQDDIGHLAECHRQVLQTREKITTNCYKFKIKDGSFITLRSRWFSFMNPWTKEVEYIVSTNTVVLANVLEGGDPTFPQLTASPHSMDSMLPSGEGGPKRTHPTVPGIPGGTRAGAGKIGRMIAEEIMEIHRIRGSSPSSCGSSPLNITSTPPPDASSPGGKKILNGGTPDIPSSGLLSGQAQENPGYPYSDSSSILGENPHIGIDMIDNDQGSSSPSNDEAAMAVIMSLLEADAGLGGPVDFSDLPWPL

What was measured:
ARNT-FLAG = ARNT-FLAG (UniProt P27540); experiment: co-IP; 786O cells transfected with FLAG-tagged bHLH-PAS proteins; RIPA lysates, anti-Flag M2 agarose beads; endogenous HIF2α and CLOCK detected by immunoblot; cells at 3% O2 for 4 h or 21% O2 before lysis
BMAL1-FLAG = BMAL1-FLAG (UniProt O00327); experiment: as above

B1: endogenous CLOCK (786O cells) (protein, UniProt O15516 1-846)
chain: MLFTVSCSKMSSIVDRDDSSIFDGLVEEDDKDKAKRVSRNKSEKKRRDQFNVLIKELGSMLPGNARKMDKSTVLQKSIDFLRKHKEITAQSDASEIRQDWKPTFLSNEEFTQLMLEALDGFFLAIMTDGSIIYVSESVTSLLEHLPSDLVDQSIFNFIPEGEHSEVYKILSTHLLESDSLTPEYLKSKNQLEFCCHMLRGTIDPKEPSTYEYVKFIGNFKSLNSVSSSAHNGFEGTIQRTHRPSYEDRVCFVATVRLATPQFIKEMCTVEEPNEEFTSRHSLEWKFLFLDHRAPPIIGYLPFEVLGTSGYDYYHVDDLENLAKCHEHLMQYGKGKSCYYRFLTKGQQWIWLQTHYYITYHQWNSRPEFIVCTHTVVSYAEVRAERRRELGIEESLPETAADKSQDSGSDNRINTVSLKEALERFDHSPTPSASSRSSRKSSHTAVSDPSSTPTKIPTDTSTPPRQHLPAHEKMVQRRSSFSSQSINSQSVGSSLTQPVMSQATNLPIPQGMSQFQFSAQLGAMQHLKDQLEQRTRMIEANIHRQQEELRKIQEQLQMVHGQGLQMFLQQSNPGLNFGSVQLSSGNSSNIQQLAPINMQGQVVPTNQIQSGMNTGHIGTTQHMIQQQTLQSTSTQSQQNVLSGHSQQTSLPSQTQSTLTAPLYNTMVISQPAAGSMVQIPSSMPQNSTQSAAVTTFTQDRQIRFSQGQQLVTKLVTAPVACGAVMVPSTMLMGQVVTAYPTFATQQQQSQTLSVTQQQQQQSSQEQQLTSVQQPSQAQLTQPPQQFLQTSRLLHGNPSTQLILSAAFPLQQSTFPQSHHQQHQSQQQQQLSRHRTDSLPDPSKVQPQ
binding (ARNT-FLAG): no binding | binding (BMAL1-FLAG): binds
